# Laboratory results published in patent US7816326B2, “Sulfur compounds as inhibitors of hepatitis C virus NS3 serine protease” (Schering Corporation, priority 2004, dated 2010).
# Molecular target: Recombinant heterodimeric HCV NS3/NS4A protease (strain 1a) (Hepatitis C virus genotype 1a, UniProt P27958)
# Experiment: Spectrophotometric assay for HCV protease inhibitory activity
# Format: biochemical
# Conditions: HCV serine protease inhibitory activity ranges; read-out: Ki* Range
# Source text: The present invention relates to novel HCV protease inhibitors. This utility can be manifested in their ability to inhibit the HCV NS2/NS4a serine protease.
# Assay for HCV Protease Inhibitory Activity:
# Spectrophotometric Assay: Spectrophotometric assay for the HCV serine protease can be performed on the inventive compounds by following the procedure described by R. Zhang et al, Analytical Biochemistry, 270 (1999) 268-275, the disclosure of which is incorporated herein by reference. The assay based on the proteolysis of chromogenic ester substrates is suitable for the continuous monitoring of HCV NS3 protease activity. The substrates are derived from the P side of the NS5A-NS5B junction sequence (Ac-DTEDVVX(Nva), where X=A or P) whose C-terminal carboxyl groups are esterified with one of four different chromophoric alcohols (3- or 4-nitrophenol, 7-hydroxy-4-methyl-coumarin, or 4-phenylazophenol). Illustrated below are the synthesis, characterization and application of these novel spectrophotometric ester substrates to high throughput screening and detailed kinetic evaluation of HCV NS3 protease inhibitors. Materials and Methods: Materials: Chemical reagents for assay related buffers are obtained from Sigma Chemical Company (St. Louis, Mo.). Reagents for peptide synthesis were from Aldrich Chemicals, Novabiochem (San Diego, Calif.), Applied Biosystems (Foster City, Calif.) and Perseptive Biosystems (Framingham, Mass.). Peptides are synthesized manually or on an automated ABI model 431A synthesizer (from Applied Biosystems). UV/VIS Spectrometer model LAMBDA 12 was from Perkin Elmer (Norwalk, Conn.) and 96-well UV plates were obtained from Corning (Corning, N.Y.). The prewarming block can be from USA Scientific (Ocala, Fla.) and the 96-well plate vortexer is from Labline Instruments (Melrose Park, Ill.). A Spectramax Plus microtiter plate reader with monochrometer is obtained from Molecular Devices (Sunnyvale, Calif.). […] Protein concentrations are determined by the Biorad dye method using recombinant HCV protease standards previously quantified by amino acid analysis. Prior to assay initiation, the enzyme storage buffer (50 mM sodium phosphate pH 8.0, 300 mM NaCl, 10% glycerol, 0.05% lauryl maltoside and 10 mM DTT) is exchanged for the assay buffer (25 mM MOPS pH 6.5, 300 mM NaCl, 10% glycerol, 0.05% lauryl maltoside, 5 μM EDTA and 5 μM DTT) utilizing a Biorad Bio-Spin P-6 prepacked column. Substrate Synthesis and Purification: The synthesis of the substrates is done as reported by R. Zhang et al, (ibid.) and is initiated by anchoring Fmoc-Nva-OH to 2-chlorotrityl chloride resin using a standard protocol (K. Barlos et al, Int. J. Pept. Protein Res., 37 (1991), 513-520). The peptides are subsequently assembled, using Fmoc chemistry, either manually or on an automatic ABI model 431 peptide synthesizer. […] The combined filtrate and DCM wash is evaporated azeotropically (or repeatedly extracted by aqueous Na2CO3 solution) to remove the acid used in cleavage. The DCM phase is dried over Na2SO4 and evaporated.
# The ester substrates are assembled using standard acid-alcohol coupling procedures (K. Holmber et al, Acta Chem. Scand., B33 (1979) 410-412). Peptide fragments are dissolved in anhydrous pyridine (30-60 mg/ml) to which 10 molar equivalents of chromophore and a catalytic amount (0.1 eq.) of para-toluenesulfonic acid (pTSA) were added. Dicyclohexylcarbodiimide (DCC, 3 eq.) is added to initiate the coupling reactions. Product formation is monitored by HPLC and can be found to be complete following 12-72 hour reaction at room temperature. Pyridine solvent is evaporated under vacuum and further removed by azeotropic evaporation with toluene.
row,SMILES,Ki [µM]
1,CCC[C@H](NC(=O)[C@@H]1[C@@H]2[C@H](CN1C(=O)[C@@H](NC(=O)NC1(CS(=O)(=O)N(C)C(C)C)CCCCC1)C1(C)CCCCC1)C2(C)C)C(=O)C(=O)NC1CC1 [compound 1255],< 0.075
2,CCN(C(C)(C)C)S(=O)(=O)CC1(NC(=O)N[C@H](C(=O)N2C[C@H]3[C@@H]([C@H]2C(=O)N[C@@H](CC2CC2)C(=O)C(=O)NC2CC2)C3(C)C)C2(C)CCCCC2)CCCCC1 [compound 1337],< 0.075
3,CCC[C@H](NC(=O)[C@@H]1[C@@H]2[C@H](CN1C(=O)[C@@H](NC(=O)NC1(CS(=O)(=O)N(C)CC)CCCCC1)C(C)(C)C)C2(C)C)C(=O)C(=O)NC1CC1 [compound 1284],< 0.075
4,CC(C)N(C)S(=O)(=O)CC1(NC(=O)N[C@H](C(=O)N2C[C@H]3[C@@H]([C@H]2C(=O)N[C@@H](CC2CC2)C(=O)C(=O)NC2CC2)C3(C)C)C(C)(C)C)CCCCC1 [compound 1328],< 0.075
5,CCC[C@H](NC(=O)[C@@H]1[C@@H]2[C@H](CN1C(=O)[C@@H](NC(=O)NC1([C@@H]3CCN(C)S3(=O)=O)CCCCC1)C(C)(C)C)C2(C)C)C(=O)C(=O)NC1CC1 [compound 1206],< 0.075
6,CN(c1ccccn1)S(=O)(=O)CC1(NC(=O)N[C@H](C(=O)N2C[C@H]3[C@@H]([C@H]2C(=O)N[C@@H](CC2CC2)C(=O)C(=O)NC2CC2)C3(C)C)C(C)(C)C)CCCCC1 [compound 1395],< 0.075
7,CN(C)S(=O)(=O)CC1(NC(=O)N[C@H](C(=O)N2C[C@H]3[C@@H]([C@H]2C(=O)N[C@@H](CCC2CC2)C(=O)C(=O)NC2CC2)C3(C)C)C2CCCCC2)CCCCC1 [compound 1240],< 0.075
8,C=CCNC(=O)C(=O)C(CCCC)NC(=O)[C@@H]1[C@@H]2[C@H](CN1C(=O)[C@@H](NC(=O)N[C@H]([C@H]1CCN(C)S1(=O)=O)C(C)(C)C)C1(C)CCCCC1)C2(C)C (some centres unmarked) [compound 1225],> 0.25
9,CCCC[C@H](NC(=O)[C@@H]1[C@@H]2[C@H](CN1C(=O)[C@@H](NC(=O)NC1(CS(=O)(=O)N3CCCC3)CCCCC1)C(C)(C)C)C2(C)C)C(=O)C(=O)NC1CC1 [compound 1210],< 0.075
10,CCCC[C@H](NC(=O)[C@@H]1[C@@H]2[C@H](CN1C(=O)[C@@H](NC(=O)NC1(CS(=O)(=O)N(C)C3CC3)CCCCC1)C1(C)CCCCC1)C2(C)C)C(=O)C(=O)NC1CC1 [compound 1268],< 0.075
11,CCN(CC)S(=O)(=O)CC1(NC(=O)N[C@H](C(=O)N2C[C@H]3[C@@H]([C@H]2C(=O)N[C@@H](CCC2CC2)C(=O)C(=O)NC2CC2)C3(C)C)C2CCCCC2)CCCCC1 [compound 1334],< 0.075
12,CCC[C@H](NC(=O)[C@@H]1[C@@H]2[C@H](CN1C(=O)[C@@H](NC(=O)NC1(CS(=O)(=O)N(CC)CC)CCCCC1)C1(C)CCCCC1)C2(C)C)C(=O)C(=O)NC1CC1 [compound 1266],< 0.075
13,CCC[C@H](NC(=O)[C@@H]1[C@@H]2[C@H](CN1C(=O)[C@@H](NC(=O)NC1(CS(=O)(=O)N(C(C)C)C3CC3)CCCCC1)C1(C)CCCCC1)C2(C)C)C(=O)C(=O)NC1CC1 [compound 1362],< 0.075
14,CCCC[C@H](NC(=O)[C@@H]1[C@@H]2[C@H](CN1C(=O)[C@@H](NC(=O)NC1([C@H]3CCN(C4CC4)S3(=O)=O)CCCCC1)C(C)(C)C)C2(C)C)C(=O)C(=O)NC1CC1 [compound 1213],< 0.075
15,CCCC[C@H](NC(=O)[C@@H]1[C@@H]2[C@H](CN1C(=O)[C@@H](NC(=O)NC1(CS(=O)(=O)N(CC)C(C)C)CCCCC1)C1(C)CCCCC1)C2(C)C)C(=O)C(=O)NC1CC1 [compound 1303],< 0.075
16,CCCC[C@H](NC(=O)[C@@H]1[C@@H]2[C@H](CN1C(=O)[C@@H](NC(=O)NC1(CS(=O)(=O)N(CC)C(C)(C)C)CCCCC1)C(C)(C)C)C2(C)C)C(=O)C(=O)NC1CC1 [compound 1313],< 0.075
17,CCC[C@H](NC(=O)[C@@H]1[C@@H]2[C@H](CN1C(=O)[C@@H](NC(=O)NC1(CS(=O)(=O)N(C)C(C)(C)C)CCCCC1)C1(C)CCCCC1)C2(C)C)C(=O)C(=O)NC1CC1 [compound 1278],< 0.075
